# Assay results taken from ChEMBL document CHEMBL4888484, “Replenishing the malaria drug discovery pipeline: Screening and hit evaluation of the MMV Hit Generation Library 1 (HGL1) against asexual blood stage Plasmodium falciparum ,using a nano luciferase reporter read-out” (2022).
# About 540 (0.36%) of roughly 150,000 compounds showed an effect of 50% or more. Some of the results follow.
# System: Plasmodium falciparum
# Assay: Primary screen in NF54 nanoGlo assay, in single point, at 2uM, 72h; a lower Z score goes with more inhibition
# Type: functional, Erythrocyte
# Conditions: timepoint 72 hour
Compound,% Inhibition [%],Z score
Cc1ncoc1CNC(=O)N1Cc2cccnc2N2CCC[C@@H]2C1,-6,1.23
N#Cc1ccc(C(=O)N[C@H]2CN[C@H](C(=O)NCCCc3ccccc3)C2)cc1,6,-0.75
COc1ccc(OC)c(S(=O)(=O)NC2CCCC(OC(=O)Nc3ccccc3)C2)c1 (stereo not given),-13,2.49
O=C(CCc1nc([C@H]2CCOC2)no1)N1CCCCCC1,-23,2.36
N#CC1(c2nc(CC(=O)NC3CCCC3)no2)CCCCC1,-13,1.36
Cc1ccc(-c2noc(NC[C@](C)(O)C(=O)O)n2)cc1,-10,1.38
Cc1cc(=O)c(C(=O)NC2(c3c(F)cccc3F)CCCC2)c[nH]1,13,-1.71
Cc1nn(C)c(C(=O)NC[C@H]2COCCO2)c1Cl,6,-0.79
COc1ccc(CN(Cc2cccnc2)C2CC2)cc1Cn1cncn1,8,-1.3
Cn1ncc2c(N)nc(N3CC[C@H](Cc4ccc(F)c(F)c4)C3)nc21,10,-1.32
CC[C@@H](CO)NC(=O)NCc1cc(Cl)cc2c1OCC2,-13,1.78
CC(C)c1nc(CS(=O)(=O)Cc2noc(C3CC3)n2)no1,-13,1.46
COc1cccc(OCCn2ncn(C)c2=O)c1,-11,1.68
COc1ccc(S(=O)(=O)N2CC[C@H](c3nc4ccccc4n3C)C2)cc1,-14,2.68
COc1ccccc1-c1cc(C(=O)Nc2sc3c(c2C#N)CC[C@H](C)C3)c2ccccc2n1,11,-1.32
CC1(C)CN(CCCn2cnnn2)CC[C@]1(C)O,-5,0.92
NC(=O)C1C2CCCC2CN1C(=O)c1ccncc1F (stereo not given),-2,0.34
CCn1cc(CN2CC(Oc3ccc(-c4noc(-c5cccnc5)n4)cc3)C2)cn1,-22,4.13
COc1ncccc1C(=O)N1CC(n2nccn2)C1,1,-0.16
S=c1sc2c(N3CCCC3)nc(-c3ccccc3)nc2n1-c1ccccc1,9,-1.24
CCCCS(=O)(=O)NCCn1ccn2nccc12,-12,1.58
CCc1ccccc1NC(=O)CN1CCN(C(=O)c2ccc(-n3cccn3)nc2)CC1,-8,1.1

Compound,% Inhibition [%],Z score
Cc1nc(N[C@@H](C)C(=O)N2CCCCC2)nc(C)c1CC(C)C,-7,0.96
O=C(O)[C@]12CN(C/C=C/c3ccccc3)C[C@H]1CN(C1CCCC1)C2,1,-0.11
O=C1[C@@H]2C[C@@H](CN2Cc2c(F)cccc2F)N1c1ccc2c(c1)OCO2,1,-0.13
CC1(C)CCN(S(=O)(=O)N2C[C@@H]3NCCO[C@H]3C2)CC1,-10,1
O=C(c1ccn(CC(F)F)n1)N1CCCCC2CCCCC21 (stereo not given),-7,0.86
CCCC(CCC)C(=O)Nc1cccc(C(=O)OCC)c1,-5,0.51
CN(C)Cc1cccc(NC(=O)C[C@@H](c2ccc(Cl)c(Cl)c2)N2CCOCC2)c1,3,-0.55
CCOc1c(Cl)cccc1CC(=O)N(C)Cc1nccs1,3,-0.46
Cc1ccc(CCC(=O)NS(=O)(=O)c2cn(C)c3ccccc23)o1,2,-0.27
COc1ccc(-c2ccno2)cc1S(=O)(=O)NCc1noc(C2CC2)n1,-16,2.04
CC(C)OCc1c(C(=O)N2CCCCCC2)oc2ccccc12,-6,1.01
CC(C)OCCC(=O)N1CCN(c2nncc3ccccc23)CC1,4,-0.58
CCCCc1ccc(NC(=O)N(CCN(C)C)CCN(C)C)cc1,17,-2.41
Cc1noc(C)c1S(=O)(=O)NCc1cc(-c2ccncc2)nn1C,-15,1.74
Cc1ccc(-c2ncn(C3CCCCC3)c2-c2ccc(C(=O)Nc3ccc(F)cc3)o2)cc1,-2,0.32
CCCC(=O)N1CCC(N2C(=O)N(Cc3cccnc3)C[C@]23CCOC3)CC1,-10,1.15
CO[C@H]1COCC[C@@H]1NS(=O)(=O)c1cccnc1,-10,1.9
CCOCC1CN(C(=O)NCC2CS(=O)(=O)c3ccccc32)CCO1 (stereo not given),-16,2.07
CC1(C)C(=O)N(c2ccccc2)/C(=N/c2ccc(Cl)cc2)[C@H]1N1CCCC1,4,-0.46
CCOCCOc1ccc(Br)cc1NC(N)=O,-12,1.66
CCCc1cnc(N(C)CCC(C)(C)O)nc1,-4,0.81
Cc1cccc(N2CCN(C(=O)[C@@H]3CNC(=O)C3)CC2)c1C,-9,1.58

Compound,% Inhibition [%],Z score
Cn1cc(S(=O)(=O)NC[C@](O)(c2ccoc2)c2ccco2)cn1,-15,2.51
CCN(C(=O)c1cc(C)n(-c2ccc(F)cc2F)n1)c1cccnc1,-10,1.24
Cc1ccn(C)c(=O)c1NS(=O)(=O)c1c(C)noc1C,-6,1
CCONC(=O)[C@H](CC)c1ccccc1,12,-1.66
Cc1ccc(S(=O)(=O)N2CCN(C(=O)CCc3c(C)n[nH]c3C)CC2)cc1,-13,1.73
Cc1cc(NC(=O)c2cc(C)on2)no1,-6,0.92
Cc1ccc(NC(=O)c2nn(-c3ccc(C)cc3)c3ccccc3c2=O)cc1,-15,2.23
COc1ccccc1C1CC1C(=O)Nc1c(C)c(C2CC2)nn1-c1ccccc1 (stereo not given),-12,1.41
O=C(Nc1ccc(OC(F)(F)Cl)cc1)NS(=O)(=O)Oc1ccccc1F,-9,1.16
COc1cc(C(=O)N2CCO[C@H](C)[C@H]2C(N)=O)on1,-8,1.3
CCCc1c2c(nn1-c1ccccc1F)C[C@H](c1ccccc1)CC2=O,4,-0.65
Cc1nc(N)nc(-c2cccc(C(=O)N3C[C@H]4CC=CC[C@H]4C3)c2)c1Cl,-6,0.73
Cc1nc(C(=O)Nc2ccncc2)c(-c2ccccc2Cl)s1,-14,1.76
CO[C@H]1COCC[C@@H]1NC(=O)c1cccc(CN2CCCCCC2)c1,0,-0.01
CCN(CC)S(=O)(=O)c1ccc2c(c1)nnn2CCC(=O)N1CCN(c2ccccn2)CC1,10,-0.97
Cc1ccc(S(=O)(=O)c2c(NS(=O)(=O)c3ccc(F)cc3)n(CCc3ccccc3)c3nc4ccccc4nc23)cc1,98,-8.73
CC(CC(O)c1ccco1)NC(=O)c1cncc(F)c1 (stereo not given),-9,1.11
Cc1cc(C(=O)NC2CCN(C)CC2)ccc1N(C)S(=O)(=O)c1ccc(Cl)cc1,1,-0.1
COc1c[nH]c(C(=O)N2CCc3[nH]c(-c4ccccc4)nc3C2)cc1=O,-10,1.52
O=C(NCc1cnn(CCF)c1)[C@H]1CCCN1C(=O)c1ccccc1,-3,0.39
O=S(=O)(CCN1CCCCC1)Oc1ccc(Cl)cc1Cl,0,-0.03
O=C(c1sc2cc(C(F)(F)F)ccc2c1Cl)N1CCNCCNCC1,0,-0.01

Compound,% Inhibition [%],Z score
O=C(NC[C@]1(O)CCOC1)C1(O)CCCC1,-4,0.46
CC1(C)NC(=O)N(Cc2ccnc(OCC3CC3)c2)C1=O,3,-0.53
CCCNc1ccccc1-c1nc(OC)c2cnn(-c3ccccc3)c2n1,31,-3.5
COCc1cc(-c2ccc(C)cc2-n2nc(C)cc2C)ncn1,-9,1.05
COc1ccc(S(=O)(=O)N[C@H]2CCS(=O)(=O)C2)c2c1CCCC2,-4,0.83
Cc1ccccc1Nc1c(-c2ccc(N3CCOCC3)cc2)nc2c(C)cccn12,-14,1.39
Cc1cnn(CCCN2CCO[C@H](c3ccc(Cl)cc3)C2)c1,2,-0.41
Cc1nc(C(=O)OC[C@H]2CCCCO2)cs1,-12,2.28
Cc1csc(CN(C)C(=O)CCCn2cnnn2)n1,-6,0.62
Cn1cccc1-c1noc(CNC(=O)Cc2cccc(Cl)c2)n1,-18,2.27
O=C(c1c(F)cccc1Cl)N1C[C@H](COc2ccncc2)C2(CCOCC2)C1,-11,1.49
CC1(OCC#CCN2CCOCC2)COC(C)(OCC#CCN2CCOCC2)OC1 (stereo not given),-8,1.01
Cc1ccsc1[C@H]1CCN(Cc2ccccc2C(=O)O)C[C@@H]1O,-5,0.59
O=C(c1ccncn1)N1CCC[C@@H]1CCc1noc(-c2ccccn2)n1,-18,2.94
CC(C)(C(=O)Nc1nc(C2CC2)c(Cc2ccc(F)cc2)s1)n1cc(N)cn1,1,-0.11
CCc1nsc(NC[C@H]2CCCN(CC(F)(F)F)C2)n1,-13,1.5
COCC1(O)CCN(C(=O)[C@H](C)NC(=O)CC2CCCCC2)CC1,-14,1.78
COc1cccc(CN2C(=O)C(=O)N(Cc3ccno3)C2=O)c1,-15,1.37
COCC(=O)NC[C@@H]1C[C@H](F)CN1S(=O)(=O)N(C)Cc1ccccc1,-16,2.09
